Laboratory results reported in PubChem BioAssay AID493035 (The Scripps Research Institute Molecular Screening Center, 2011).
Hit rate of the full screen: of about 2,000 compounds, about 45 (2%) were called active.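 The calls were made as follows: active = inhibition above the mean of all tested compounds plus 3 SD (cut at about 49% in these data); inactive = the rest.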 Some of the results follow.

biological target: Perilipin-5 (Homo sapiens) + 1-acylglycerol-3-phosphate O-acyltransferase ABHD5 (Homo sapiens) (UniProt Q00G26+Q8WTS1); assay: blockers of ABHD5 binding to perilipin-5 – cell lysate, split luciferase complementation, luminescence, NIH validation set, pilot screen (AID 493035);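 also: 0% = DMSO only wells while the 100% control is not stated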; details: split G. princeps luciferase complementation, lysates, 4 h; at 7.9 µM, hits give high values
UniProt Q00G26, sequence (Q00G26 whole entry, looked up): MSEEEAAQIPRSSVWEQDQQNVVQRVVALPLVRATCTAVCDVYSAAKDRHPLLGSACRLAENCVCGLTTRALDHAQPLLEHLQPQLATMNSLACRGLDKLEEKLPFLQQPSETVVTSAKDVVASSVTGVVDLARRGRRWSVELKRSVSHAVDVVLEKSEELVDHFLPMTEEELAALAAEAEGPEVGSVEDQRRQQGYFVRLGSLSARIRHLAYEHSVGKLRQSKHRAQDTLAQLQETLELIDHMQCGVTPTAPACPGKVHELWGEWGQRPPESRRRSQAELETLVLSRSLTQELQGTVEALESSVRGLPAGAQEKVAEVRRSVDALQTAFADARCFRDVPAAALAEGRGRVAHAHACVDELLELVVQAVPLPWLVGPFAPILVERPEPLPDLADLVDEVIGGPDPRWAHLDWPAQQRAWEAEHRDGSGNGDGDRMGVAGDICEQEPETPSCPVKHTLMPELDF
UniProt Q00G26, sequence (Q8WTS1 whole entry, looked up): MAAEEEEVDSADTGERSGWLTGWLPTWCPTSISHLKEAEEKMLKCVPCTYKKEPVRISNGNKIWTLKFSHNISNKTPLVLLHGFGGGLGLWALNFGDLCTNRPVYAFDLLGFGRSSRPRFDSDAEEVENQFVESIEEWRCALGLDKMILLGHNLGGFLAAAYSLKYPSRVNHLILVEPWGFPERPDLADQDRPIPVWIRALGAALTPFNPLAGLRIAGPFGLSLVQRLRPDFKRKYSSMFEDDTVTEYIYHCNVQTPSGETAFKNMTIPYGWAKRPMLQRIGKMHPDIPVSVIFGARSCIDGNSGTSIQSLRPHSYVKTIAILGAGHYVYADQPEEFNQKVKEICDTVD

inhibition, inactive:
CC(=O)C1=C(O)C(=O)N(Cc2cccnc2)C1c1ccc(C(C)C)cc1 (stereo unspecified) 13.5%
COc1cc2cc(C)nc(Cc3cccc4ccccc34)c2cc1OC 11.8%
CCN(CC)CCNC(=O)c1ccc(N)cc1 -1.63%
OC[C@@H](O)[C@@H](O[C@H]1O[C@H](CO)[C@@H](O)[C@H](O)[C@H]1O)[C@H](O)[C@@H](O)CO -8.59%
C[N+](C)(C)CCCC(=O)c1ccc2c(c1)OCO2 11.7%
O=C(CCCN1C(=O)/C(=C\c2cccc(Br)c2)SC1=S)Nc1cccnc1 28.1%
COC(=O)c1ccccc1OCCOCCOc1cccc2ccc(C)nc12 -6.99%
COC(=O)c1ccc(CC(=O)c2ccc(O)cc2O)o1 25.6%
CO[C@H]1C=CO[C@@]2(C)Oc3c(C)c(O)c4c(O)c(c(C=NN5CCN(C)CC5)c(O)c4c3C2=O)NC(=O)C(C)=CC=C[C@H](C)[C@H](O)[C@@H](C)[C@@H](O)[C@@H](C)[C@H](OC(C)=O)[C@@H]1C 16%
CC(=O)Nc1nnc(S(N)(=O)=O)s1 5.36%
CC(C)Oc1ccc2c(=O)c(-c3ccccc3)coc2c1 4.3%
COc1cc2[nH]c3c(=O)n(CCN4CCOCC4)cnc3c2cc1OC -5.21%
CC(C)N(C(=O)Cc1ccccc1[N+](=O)[O-])C(C)C -3.66%
Cc1ccc(C(=O)Nc2ccc(O)cc2C(=O)O)cc1C -10.3%
COc1ccc(C2OC(=O)Cc3cc(OC)c(OC)cc32)cc1 (stereo unspecified) -0.18%
CC(/C=C1\SC(=O)N(CCCC(=O)O)C1=O)=C\c1ccccc1 14.2%
CCc1cc(/C(Cc2ccccn2)=N\O)c(O)cc1O -2.91%
CCc1cc(-c2[nH]ncc2-c2ccc3c(c2)OCO3)c(O)cc1O -2.89%
O=C(O)c1ccc(N2C(=O)/C(=C\c3ccccc3)N=C2c2ccccc2)cc1 5.77%
COc1ccc(CCNC(=O)CC(c2ccccc2)c2cccc(C)c2O)cc1OC (stereo unspecified) -2.01%
COc1ccc(/C=C2\CCc3ccccc3C2=O)c(OC)c1OC -7.62%
CCOC(=O)C1=C(N)Oc2c(c(=O)[nH]c3ccccc23)C1c1ccccc1 (stereo unspecified) -12.7%
CC1(C)O[C@@H]2C[C@H]3[C@@H]4C[C@H](F)C5=CC(=O)C=C[C@]5(C)[C@@]4(F)[C@@H](O)C[C@]3(C)[C@]2(C(=O)CO)O1 -1.8%
O=C(c1ccc(Cl)cc1)C1CCCN(C(=O)/C=C/c2ccccn2)C1 (stereo unspecified) 8.56%
FC(F)(F)c1ccc(-c2noc(CN3CCCN(C4CCCCC4)CC3)n2)cc1 -2.21%
COc1cc(CNCCc2c[nH]c3ccccc23)cc(Cl)c1OCC(N)=O 1.42%
COc1ccc(Cl)cc1C(=O)NCCc1ccc(S(=O)(=O)NC(=O)NC2CCCCC2)cc1 2.7%
CC(=O)OCC(=O)C1=CCC2C3CCC4=CC(=O)C=CC4(C)C3(F)C(OC(C)=O)CC12C (stereo unspecified) -5.43%
CC#C[C@]1(O)CC[C@H]2[C@@H]3CCC4=CC(=O)CCC4=C3[C@@H](c3ccc(N(C)C)cc3)C[C@@]21C 12.6%
COC(=O)c1cc(COc2ccc3ccc(=O)oc3c2)c(C)o1 -8.87%
CCN(CCCCOC(=O)c1ccc(OC)c(OC)c1)C(C)Cc1ccc(OC)cc1 (stereo unspecified) -5.96%
Cc1cc(C(C)(C)C)cc(C)c1CC1=NCCN1 -1.08%
C[C@@H]1C[C@H]2[C@@H]3CCC4=CC(=O)C=C[C@]4(C)[C@@]3(F)[C@@H](O)C[C@]2(C)[C@H]1C(=O)CO -6.69%
COc1cc2nc(N3CCN(C(=O)C4COc5ccccc5O4)CC3)nc(N)c2cc1OC (stereo unspecified) -2.13%
COc1cc(OC)cc(C(=O)N[C@@H](CCSC)c2nc3ccccc3[nH]2)c1 -1.41%
Cc1ccc(C(=O)COC(=O)c2cnccn2)cc1[N+](=O)[O-] 0.17%
NC12CC3CC(C1)CC(O)(C3)C2 -9.99%
Cc1[nH]c2ccccc2c1C(=O)CN1CCCC1 2.6%
COc1cc2c(cc1OC)CN(Cc1ccc(C)s1)CC2 11%
CC(C)C1Cc2[nH]c(=O)c(C(=O)O)cc2CO1 (stereo unspecified) -2.8%
CC1(C)Cc2nc3sc4c(=O)n(CC(N)=O)cnc4c3cc2CO1 -1.38%
NC[C@H]1O[C@H](O[C@H]2[C@H](O)[C@@H](O[C@H]3O[C@H](CO)[C@@H](O)[C@H](N)[C@H]3O)[C@H](N)C[C@@H]2N)[C@H](N)C[C@@H]1O -14%
COc1cc(-c2nnc(-c3cccs3)o2)cc(OC)c1OC -1.78%
Cc1ncc(CN2CCC(CO)(CCc3ccccc3)CC2)s1 -0.2%
O=C(/C=C/c1ccccc1)NCC1(c2ccccc2)CCOCC1 -8.05%
CC1(C)C2CCC1(C)C(OCC[N+](C)(C)CC(=O)OC1CCCCC1)C2 (stereo unspecified) -0.98%
Nc1nc2c(ncn2COC(CO)CO)c(=O)[nH]1 -2.3%
CCOc1ccc(N2C(=O)CNC2=S)cc1 -13.8%
CC(=O)OC[C@H]1O[C@@H](Sc2cccc3cccnc23)[C@H](OC(C)=O)[C@@H](OC(C)=O)[C@H]1OC(C)=O 8.8%
CC(C)CCNC(=O)[C@H](CC(C)C)NC(=O)[C@H]1O[C@@H]1C(=O)O 4.43%
CNCCc1ccccn1 2.26%
CC(C)CC(NC(=O)c1cccc(Cl)c1)C(=O)O (stereo unspecified) -11%
Cc1csc(N)n1 5.92%
COc1ccc(O)c(C2=Nc3ccccc3N=C(c3ccccc3)C2)c1 -11.4%
CCCNC(=O)NS(=O)(=O)c1ccc(Cl)cc1 0.67%
CC(=O)O[C@]1(C(C)=O)CC[C@H]2[C@@H]3C=C(Cl)C4=CC(=O)CC[C@]4(C)[C@H]3CC[C@@]21C 5.85%
Cc1cc(C(=O)NC(CC(C)C)C(=O)O)cc(C)c1[N+](=O)[O-] (stereo unspecified) 2.44%
NC(N)=NC(N)=Nc1ccc2ccccc2c1 -9.4%
COc1ccc(CCn2c(C)cc3c(c2=O)C(c2ccncc2)C(C#N)=C(N)O3)cc1OC (stereo unspecified) -4.13%
COc1ccc(C(=O)N2c3cc4c(cc3C(C)=CC2(C)C)OCO4)cc1 -4.53%
CC(C)CN(C)Cc1c(C(=O)N2CCc3ccccc3C2)nc2ccc(Cl)cn12 1.64%
CC1(C)CC(NCc2ccccc2)CCO1 (stereo unspecified) -3.35%
CCc1c(C(C)=O)oc2ccc3c(C)cc(=O)oc3c12 -7.45%
O=C1c2ccccc2N2C(=O)c3ccccc3C2N1Cc1ccco1 (stereo unspecified) 32.5%
CC12CN3CC(C)(CN(C1)C3c1ccc([N+](=O)[O-])o1)C2 (stereo unspecified) -0.18%
COc1ccc(CCN2C(=O)CSC2c2ccc(OC)c(OC)c2)cc1OC (stereo unspecified) -0.94%
Clc1ccc2c(c1)CCc1cccnc1C2=C1CCNCC1 -8.07%
CC(=O)[C@@]1(O)CC[C@H]2[C@@H]3CCC4=CC(=O)CC[C@]4(C)[C@H]3CC[C@@]21C 0.76%
CC(C)CC(=O)N(Cc1ccc(F)cc1)C1CCS(=O)(=O)C1 (stereo unspecified) 1.18%
COc1ccccc1NC(=O)Cn1c(C)cc(=O)c2cccc(OC)c21 6.78%
O=C(/C=C/c1ccc(Cl)cc1)NCCc1ccccc1 1.1%
COc1ccc(-c2nc3c(=O)n(C)c(=O)[nH]c3n2CCc2ccccc2)cc1 0.59%
CCN(CC)C(=O)c1ccc(O)c(OC)c1 1.69%
CCC(C(=O)Nc1ccc2c(c1)OCCO2)c1ccccc1 (stereo unspecified) 0.82%
Cc1ccc(C2CC(=O)C(C=NCCN3CCN(C(=S)Nc4ccccc4)CC3)=C(O)C2)cc1 (stereo unspecified) -7.35%
COc1ccc(C2C(C#N)=C(N)Oc3cc(C)[nH]c(=O)c32)c(OC)c1OC (stereo unspecified) -1.64%
CCC1(c2ccccc2)C(=O)NCNC1=O 7.74%
O=C(CSCc1ccccc1)NCCCN1CCOCC1 -11.4%
CCOc1ccc(NC(=O)N[C@@H](CCSC)C(=O)OC)cc1 -13.2%
Cc1oc2ccc(OC(=O)c3cccs3)cc2c1C(=O)OC(C)C 7.07%
C[C@]12CCC(=O)C=C1CC[C@@H]1[C@@H]2CC[C@@]2(C)[C@H]1CC[C@]2(O)C(=O)CO 2.63%
COc1ccc(C2NCCC3(O)CCCCC23)c(OC)c1OC (stereo unspecified) -0.22%
c1ccc(-c2ccc(C(c3ccccc3)n3ccnc3)cc2)cc1 (stereo unspecified) 8.03%
CN(C)CCC(c1ccc(Br)cc1)c1ccccn1 (stereo unspecified) -8.69%
CC(=O)NC1C(OCc2ccccc2)OC(COC(C)=O)C(OC(C)=O)C1OC(C)=O (stereo unspecified) 8.83%
Nc1cnn(C2OC(CO)C(O)C2O)c(=O)n1 (stereo unspecified) -8.82%
Cc1ccc(OCc2nc(-c3cccnc3)no2)cc1C 6.45%
O=C(OCC1OC2OC3(CCCCC3)OC2C2OC3(CCCCC3)OC12)c1ccccc1 (stereo unspecified) -4.03%
c1ccc2c3c(c(CN4CCCCC4)cc2c1)COC3 -1.55%
Cc1ccc(CSCC(=O)N2CCCC2)cc1 2.89%
Cc1cc(-c2nn(-c3ccccc3F)cc2CN2CCC(O)CC2)c(C)s1 -1.57%
